From PubChem BioAssay AID1478 (National Center for Advancing Translational Sciences (NCATS), 2009) come the findings set out here.

Several values for one entry are separate records, joined by “and”; a condition that tells them apart may be missing. Equal entries are not always repeated. Among all 200,000 compounds or so, about 860 (0.43%) were called active. Calls follow the shape of the dose curve; as a rule, active = well fitted inhibition curve with a large enough effect; inconclusive = small, poorly fitted or top-dose-only effect; inactive = flat fitted curve, though single readings scatter. This is a selection; strong and weak results do not stand in their true shares. A structure can be active in one record and inactive in another.
Potency is read from the fitted curve at half-maximal effect.

Sequence of UniProt P25779 (P25779 whole entry, looked up): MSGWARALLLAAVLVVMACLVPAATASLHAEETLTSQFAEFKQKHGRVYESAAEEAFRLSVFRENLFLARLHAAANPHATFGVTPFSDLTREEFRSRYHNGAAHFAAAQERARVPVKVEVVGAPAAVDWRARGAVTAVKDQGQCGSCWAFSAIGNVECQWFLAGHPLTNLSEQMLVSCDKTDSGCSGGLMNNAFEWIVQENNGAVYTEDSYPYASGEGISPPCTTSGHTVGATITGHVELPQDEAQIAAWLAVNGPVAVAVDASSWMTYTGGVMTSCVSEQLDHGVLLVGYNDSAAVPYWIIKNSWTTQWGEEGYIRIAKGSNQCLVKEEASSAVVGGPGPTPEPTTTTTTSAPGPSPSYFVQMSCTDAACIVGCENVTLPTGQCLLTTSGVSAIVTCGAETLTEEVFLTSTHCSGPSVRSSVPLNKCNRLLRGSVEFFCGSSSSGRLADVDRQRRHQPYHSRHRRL

In the test the target is Cruzipain (Trypanosoma cruzi) (UniProt P25779). Description: qHTS Assay for Promiscuous and Specific Inhibitors of Cruzain (with detergent). Also: nearly all actives have a fitted effect of over 40% in size. The following applies: purified cruzain, Z-FR-AMC fluorescence, 0.01% Triton. The protocol:
Cruzain (3.4.22.51) is a cysteine protease from the tropical parasite Trypanosoma cruzi. Dual qHTS experiment was performed against the NCGC compound collection in order to 1) identify novel inhibitors of the enzyme and 2) profile the compound collection for promiscuous inhibitors operating via colloidal aggregation (by performing detergent-free and detergent-containing comparison screens). Cruzain was assayed by the use of fluorogenic coumarin-based substrate Z-FR-AMC: proteolytic cleavage releases AMC, whose fluorescence is measured at 360 nm excitation and 450 nm emission. Purified cruzain was supplied by the labs of Prof. James McKerrow and Brian Shoichet, UC San Francisco.
This assay had 0.01% Triton X-100 concentration. See also releated assay "qHTS Assay for Promiscuous and Specific Inhibitors of Cruzain (without detergent)" with 0.00005% Triton X-100.
See following references for additional details:
Assay Provider: Shoichet, Brian; University of California, San Fancisco
Screening Center PI: Austin, C.P.
Screening Center: NIH Chemical Genomics Center [NCGC]
Buffer: 100 mM Sodium Acetate, pH 5.5, 5 mM DTT, Triton X-100 concentration: 0.01%.
Buffer in columns 3 and 4 as negative control (no enzyme).
Substrate solution: 2 uM final concentration of Z-FR-AMC (catalog number I-1160, Bachem) dispensed throughout the plate.
Enzyme: 1.5 nM Cruzain final concentration in columns 1, 2, 5-48. Column 1 is neutral (100% activity). Column 2 contained titration of covalent inhibitor K11777, starting concentration 1 mM, then 1:2 dilution in duplicate).
Three uL of enzyme or buffer were dispensed to 1536-well Greiner black solid bottom plates. Compounds and controls (23 nL) were transferred via Kalypsys PinTool. The plates were incubated for 15 min at room temperature, and then 1 uL of substrate solution was added to start the reaction. The plates were immediately transferred to and read 4 times every 30 seconds for 2 min on ViewLux High-throughput CCD imager (Perkin-Elmer) using 360 nm excitation and 450 nm emission fluorescence protocol. The fluorescence intensity difference between the third and the first time points (time lapse of 60 seconds) was used to compute reaction progress.
On the technique in general: qHTS replaces the single test concentration by a dilution series.
With `COc1ccc(C2CNC(=O)C2)cc1OC1CCCC1` (configuration not stated), the max response, negative = inhibition was inactive: 3.95% and inactive: -0.173%.

Consider `N#CCCCl`, for which the max response, negative = inhibition was inactive: 3.64%.

For the molecule `Cc1nccc2c1[nH]c1ccccc12`, the max response, negative = inhibition is inactive: -15.7% [middle of 4 runs].

In the case of `Cn1c(=O)c(C(=O)COC(=O)c2cc(-c3ccco3)nc3ccccc23)c(N)n(CC2CC2)c1=O`, the max response, negative = inhibition was inactive: -12.6%.

Take `NC(=O)c1ccc(-c2ncc(-c3ccccc3)o2)cc1`: the max response, negative = inhibition is inactive: 40.8%.

Turning to `O=c1c(O)c(-c2cc(O)c(O)c(O)c2)oc2cc(O)cc(O)c12`, the max response, negative = inhibition was inactive: -19.2% and inactive: -19.3%.

As to `O=c1ccc2cc(O[C@H]3OC(CO)C(O)C(O)C3O)c(O)cc2o1` (some centres not stated), the max response, negative = inhibition is inactive: 2.04%.

Take `CN(C)c1cc(-c2cccc(NS(C)(=O)=O)c2)ncn1`: the Potency was active: 12.6 µM.

For `O=C(OCC(=O)c1ccc([N+](=O)[O-])cc1)/C(=C\c1ccc(Cl)cc1)NC(=O)c1ccccc1`, the max response, negative = inhibition was inactive: -4.5%.

Turning to `CCCn1nc(C(=O)Oc2ccc3c(C)cc(=O)oc3c2)c2ccccc2c1=O`, the max response, negative = inhibition is inactive: 39.3%.

Regarding `CCOCC(=O)Nc1c(C(=O)Nc2ccccc2OC)oc2ccccc12`, the max response, negative = inhibition is inactive: 31.1%.

As for `O=C(NCCc1nc2ccccc2[nH]1)c1ccc(Cl)c([N+](=O)[O-])c1`, the Potency was active: 1.26 µM.

As to `COC(=O)CN(C#N)c1nc(SC)nc(N(C)C)n1`, the Potency was active: 15.8 µM.

Turning to `COc1ccc(/C=C2\OC(=O)c3c(OC)cccc32)cc1OC`, the max response, negative = inhibition was inactive: 33%.

For the molecule `CCCCn1nc(C(=O)Oc2ccc3c(C)cc(=O)oc3c2)c2ccccc2c1=O`, the max response, negative = inhibition was inactive: 37.2%.

`CCCn1c(=O)c2[nH]c(-c3ccc(S(=O)(=O)O)cc3)nc2n(CCC)c1=O`: the max response, negative = inhibition is inactive: 37.5%.

For `CCN(CC)C(=O)N[C@@H]1C[C@H]2c3cccc4[nH]cc(c34)C[C@@H]2N(C)C1`, the max response, negative = inhibition is inactive: -1.01% and inactive: 4.59%.

Turning to `COCCCNC(=O)C1CCN(S(=O)(=O)c2c(C)noc2/C=C\c2ccc(OC)cc2)CC1`, the max response, negative = inhibition is inactive: 49.8%.

Regarding `COc1ccc(N(CC(O)Cn2c3ccccc3c3ccccc32)S(=O)(=O)c2ccccc2)cc1` (configuration not stated), the max response, negative = inhibition is inactive: 33%.

`COc1ccc(S(=O)(=O)N(Cc2cc3ccc(OC)cc3[nH]c2=O)CC2COCCO2)cc1` (configuration not stated): the max response, negative = inhibition was inactive: 178%.

In the case of `O=C(Nc1ccc(S(=O)(=O)Nc2ncccn2)cc1)c1ccc(Br)s1`, the max response, negative = inhibition was inactive: 46.7%.

For `CCCCn1c2ccc(F)cc2c2nnc(SCCN3CCCCC3)nc21`, the Potency was active: 15.8 µM.

Take `CC(=O)c1cccc(NC(=O)CCCN2C(=O)COc3ccc(C)cc32)c1`: the Potency is active: 17.8 µM.

In the case of `Cc1ccc(NC(=O)Cc2ccc(-n3c(C)nc4cccnc43)cc2)c(Cl)c1`, the Potency was active: 8.91 µM.

For `COc1cc(/C=N/NC(=O)C(Cc2c[nH]c3ccccc23)NC(=O)OCC(C)C)cc([N+](=O)[O-])c1O` (configuration not stated), the max response, negative = inhibition was inactive: -19.4%.

Turning to `Cc1cc(N)c2ccccc2[n+]1CCCCCCCCCC[n+]1c(C)cc(N)c2ccccc21`, the max response, negative = inhibition is inactive: -23.1% and inactive: -22.9% and inactive: -25.8%.

Consider `Nc1ccc(O)c2c(=O)cc(-c3ccccc3Cl)oc12`, for which the max response, negative = inhibition is inactive: -1.83%.

Consider `COc1ccc(OCC2c3cc(OC)c(OC)cc3CCN2C(=O)c2c(F)cccc2F)cc1` (configuration not stated), for which the max response, negative = inhibition was inactive: 30.8%.

As to `CC(=O)N1CCN(C(=O)COc2ccc(Br)cc2)CC1`, the max response, negative = inhibition was inactive: 30.8%.

For `CC(C)(Sc1ccc(CCN(CCCCC2CCCCC2)C(=O)NC2CCCCC2)cc1)C(=O)O`, the max response, negative = inhibition is inactive: -18%.

With `CCc1c(C)c2cc(Cl)c(O)c(CN3CCCCC3)c2oc1=O`, the Potency is active: 31.6 µM.

Consider `O=C(NCCc1ccccc1)c1ccc2nc(-c3ccco3)c(-c3ccco3)nc2c1`, for which the Potency is active: 15.8 µM.

Take `O=S(=O)(c1ccccc1)N(CC(O)Cn1c2ccccc2c2ccccc21)c1ccccc1` (configuration not stated): the max response, negative = inhibition was inactive: 34.2%.

For `CSc1ccc(-c2c(C#N)c(N)nc3c2CCCC3)cc1`, the max response, negative = inhibition is inactive: 41.5%.

On to `CCN(CC)Cc1c(O)ccc2c(C)c(CC(=O)OC)c(=O)oc12`, for which the Potency was active: 25.1 µM.

`O=C(Nc1cccc(C(F)(F)F)c1)c1ccc2nc(-c3ccco3)c(-c3ccco3)nc2c1`: the Potency is active: 14.1 µM.

With `CN(C)CCNC(=O)c1cc2c(=O)n(C)c3ccccc3c2n1C`, the Potency was active: 25.1 µM.

Consider `COc1ccc(-c2cc(C#N)nc(N3CCN(C)CC3)n2)cc1`, for which the Potency was active: 25.1 µM.

For the molecule `c1ccc(Cn2c(-c3cccs3)nc3nc4ccccc4nc32)cc1`, the max response, negative = inhibition was inactive: 51.8%.

Take `O=C(Nc1ccc([N+](=O)[O-])cc1Cl)c1cc(Cl)ccc1O`: the max response, negative = inhibition is inactive: -0.0468% and inactive: 2.12%.

For the molecule `COc1cccc2c1C(=O)c1c(O)c3c(c(O)c1C2=O)C[C@@](O)(C(=O)CO)C[C@H]3O[C@H]1C[C@@H](N)[C@H](O)[C@@H](C)O1.[W]`, the max response, negative = inhibition is inactive: 3.41%.

As for `Cc1cc(-n2c(=O)c(C#N)cc3c(=O)n4cccc(C)c4nc32)no1`, the max response, negative = inhibition was inactive: 105%.
